# Assay results from PubChem BioAssay AID624417 (National Center for Advancing Translational Sciences (NCATS), 2012).
# “And” between values parts separate entries of the source, which are not always exact repeats. Equal entries are not always repeated. In all, about 410,000 compounds went through this assay and about 6,400 (1.6%) were called active. Inconclusive results, whose numbers are uncertain, are shown with a selection of clear calls. Calls follow the shape of the dose curve; as a rule, active = well fitted inhibition curve with a large enough effect; inconclusive = small, poorly fitted or top-dose-only effect; inactive = no such curve, though single readings can be large or run the other way. Where the call is inconclusive, the potency comes from a doubtful curve fit.
# Biological target: Glucagon-like peptide 1 receptor (Homo sapiens) (UniProt P43220)
# Chain of UniProt P43220 (P43220 whole entry, looked up): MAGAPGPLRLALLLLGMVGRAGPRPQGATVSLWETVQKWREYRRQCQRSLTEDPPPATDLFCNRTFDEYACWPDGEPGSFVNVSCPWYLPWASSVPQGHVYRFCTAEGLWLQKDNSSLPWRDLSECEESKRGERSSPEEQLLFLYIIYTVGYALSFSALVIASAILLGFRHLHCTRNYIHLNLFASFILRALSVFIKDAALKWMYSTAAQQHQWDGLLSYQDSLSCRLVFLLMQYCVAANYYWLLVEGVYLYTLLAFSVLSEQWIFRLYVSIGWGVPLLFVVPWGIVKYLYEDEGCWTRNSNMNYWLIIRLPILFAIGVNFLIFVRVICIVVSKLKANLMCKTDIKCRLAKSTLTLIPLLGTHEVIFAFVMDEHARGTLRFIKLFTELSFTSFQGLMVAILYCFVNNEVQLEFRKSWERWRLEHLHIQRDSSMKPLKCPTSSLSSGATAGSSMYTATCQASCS
# Test: qHTS of GLP-1 Receptor Inverse Agonists (Inhibition Mode); also: nearly all actives have a fitted effect of over 55% in size
# Details: HEK293 GLP-1R CRE-luciferase, luminescence, 24 h, GLP-1R form is constitutively active; series mostly up to 38.3 µM
# Outline: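 Using stably transfected HEK293 (constitutively active GLP-1R, cAMP-luciferase reporter), compounds were incubated 24 hr and luciferase measured by luminescence.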
# Potency is read from the fitted curve at half-maximal effect; tags tell the direction and shape of the fitted curve.
row,Compound,Potency
1,CCOC(=O)c1cnc2c(OC)cccc2c1N1CCN(c2ccccc2F)CC1,"inconclusive: 28.2 µM [inhibitor, single point]"
2,CCOC(=O)C1=C(O)/C(=C/c2cc(OC)c(O)c(OC)c2)SC1=Nc1ccc(OC)cc1,inactive
3,COc1ccc(NC(=S)Nc2cccc(C)n2)cc1,"inconclusive: 3.55 µM [inhibitor, full curve, poor fit]"
4,COc1ccc(CCNC(=O)CCCCn2c(=O)c3ccccc3n(Cc3cccc(C)c3)c2=O)cc1OC,inactive
5,S=c1[nH]nc(COc2ccccc2)n1/N=C/C(Cl)=C/c1ccccc1,"inconclusive: 28.2 µM [inhibitor, partial curve, poor fit]"
6,CCOc1ccc(CN(C(=O)c2cc3ccccc3oc2=O)C2CC2)cc1,"inconclusive: 22.4 µM [inhibitor, partial curve, poor fit]"
7,COCOc1ccc(/C=C/C(=O)c2c(O)cc(OCOC)cc2OCOC)cc1,"inconclusive: 11.2 µM [inhibitor, single point]"
8,CCc1ccc(OCC(=O)Nc2c(C(=O)c3ccc(Br)cc3)oc3ccccc23)cc1,inactive
9,Fc1ccc(Cn2ccc(-c3cnc(-c4ccccc4)s3)n2)cc1,"inconclusive: 28.2 µM [inhibitor, single point]"
10,CCC(Oc1ccccc1)C(=O)Nc1nnc(S(=O)(=O)N2CCCC2)s1 (stereo not drawn),"inconclusive: 8.91 µM [inhibitor, partial curve, poor fit]"
11,O=C(CN(Cc1ccco1)C(=O)c1cc(=O)[nH]c2ccccc12)Nc1ccccc1Br,inactive
12,CCc1ccc(/C=N/n2c(COc3ccccc3)n[nH]c2=S)cc1,"inconclusive: 11.2 µM [inhibitor, partial curve]"
13,COCc1cc(=O)[nH]c(Nc2nc3ccccc3o2)n1,"inconclusive: 28.2 µM [inhibitor, single point]"
14,CCOC(=O)N1CCN(CC(O)c2ccc3c(c2)CCN3)CC1 (stereo not drawn),inactive
15,Cc1ccc(OC(=O)c2ccc3nc(C)sc3c2)cc1,inactive
16,CCc1c(C)sc(NC(=S)N2CCN(C(=O)C3CCCO3)CC2)c1C(=O)OC (stereo not drawn),inactive
17,Cc1ccc(/C=N/NC(=O)c2cc(-c3ccc(C)o3)[nH]n2)cc1,"inconclusive: 10 µM [inhibitor, partial curve, poor fit]"
18,CC(C)(C)c1cc(NC(=O)NN2CCOCC2)nn1-c1c(Cl)cc(Cl)cc1Cl,"inconclusive: 10 µM [inhibitor, single point]"
19,CC(=O)CCc1ccc(OCC(O)CNC2CCCc3ccccc32)cc1 (stereo not drawn),"inconclusive: 10 µM [inhibitor, partial curve, poor fit]"
20,COc1cccc2c1OCC(C(=O)O)C2 (stereo not drawn),inactive
21,N#Cc1c(Cl)cccc1Oc1ccc(S(=O)(=O)Nc2ccccc2)cc1,"inconclusive: 28.2 µM [inhibitor, single point]"

row,Compound,Potency
1,CC(=O)c1ccc(NC(=O)CCCN2C(=O)C(c3ccccc3)Oc3cccnc32)cc1 (stereo not drawn),"inconclusive: 28.2 µM [inhibitor, single point]"
2,CCOc1ccc(C(=O)N/N=C/c2cc([N+](=O)[O-])cs2)cc1,inactive
3,N#Cc1c2ccc(O)cc2n2ccccc12,"inconclusive: 5.01 µM [inhibitor, full curve, poor fit]"
4,COc1ccc(OC)c(NC(=O)C2CCN(c3nc(C)cc(C)n3)CC2)c1,"inconclusive: 15.8 µM [inhibitor, single point]"
5,Oc1ccccc1Nc1nc(NCc2ccccc2)c2ccccc2n1,"inconclusive: 10 µM [inhibitor, partial curve, poor fit]"
6,CC(C)c1ccc(CC(C)C2C3=C(CCCC3=O)OC3=C2C(=O)CCC3)cc1 (stereo not drawn),"inconclusive: 11.2 µM [inhibitor, partial curve, poor fit]"
7,Cc1cccc(N2C(=O)CC(Sc3nc(C)c4c(n3)CCCC4)C2=O)c1 (stereo not drawn),inactive
8,O=S(=O)(c1ccccc1)N(Cc1cccc(F)c1)c1ccccc1,"inconclusive: 3.16 µM [inhibitor, single point]"
9,Cc1cc(/C=C(\C#N)C(=O)NC2CCCCCC2)c(C)[nH]1,"inconclusive: 14.1 µM [inhibitor, single point]"
10,CC(C)(C)c1ccc(OCCNC(=S)Nc2ccccc2)cc1,active: 10 µM
11,CCCCCNC1=CC(=O)CC(c2ccccc2)C1 (stereo not drawn),inactive
12,COC(=O)c1ccc(CN(c2ccc(C)cc2)S(=O)(=O)c2ccc3c(c2)OCCO3)o1,"inconclusive: 11.2 µM [inhibitor, single point]"
13,Cc1cc(NC(=O)CCN2CCN(CCO)CC2)ccc1Br,"inconclusive: 11.2 µM [inhibitor, partial curve, poor fit]"
14,Cc1cc([N+](=O)[O-])cc(/C=N\NC(=O)C2COc3ccccc3O2)c1O (stereo not drawn),"inconclusive: 8.91 µM [inhibitor, partial curve, poor fit]"
15,O=C(Nc1cccc(S(=O)(=O)N2CCCCCC2)c1)c1cc(=O)c2ccccc2o1,"inconclusive: 28.2 µM [inhibitor, single point]"
16,CCOC(=O)C1C(=O)C=C(c2ccc(C)cc2)CC1c1cccc([N+](=O)[O-])c1 (stereo not drawn),"inconclusive: 22.4 µM [inhibitor, single point]"
17,O=C(COc1ncnc2ccccc12)Nc1ccc(Cl)c([N+](=O)[O-])c1,"inconclusive: 10 µM [inhibitor, partial curve, poor fit]"
18,Cc1ccccc1NC(=O)CN1C(=O)C2C3CC(C(Br)C3Br)C2C1=O (stereo not drawn),"inconclusive: 10 µM [inhibitor, partial curve, poor fit]"
19,CC(CN(C)Cc1ccccc1)OC(=O)c1ccc(F)cc1 (stereo not drawn),"inconclusive: 31.6 µM [inhibitor, single point]"
20,c1ccc(CSc2nc3ccccc3[nH]2)cc1,"inconclusive: 11.2 µM [inhibitor, single point]"
21,O=C(Nc1ccc2c(c1)OCCO2)c1ccccn1,"inconclusive: 2.51 µM [inhibitor, partial curve, poor fit]"

row,Compound,Potency
1,C[C@H](O)[C@@H]1CN2CCc3c([nH]c4ccccc34)[C@@H]2C[C@@H]1N(C)C(=O)Nc1ccccc1,"inconclusive: 22.4 µM [inhibitor, single point]"
2,Cc1cccc(NS(=O)(=O)c2cccc(C(=O)N3CCN(c4ccccn4)CC3)c2)c1,inactive
3,CCc1cccc2c(C(=O)CN3C(=O)N(C)C4(CCCCC4)C3=O)c[nH]c12,"inconclusive: 31.6 µM [inhibitor, single point]"
4,COc1ccc(S(=O)(=O)N2CCN(C(=O)c3cc(-c4ccc(Br)cc4)n[nH]3)CC2)cc1OC,"inconclusive: 28.2 µM [inhibitor, single point] and inconclusive: 12.6 µM [inhibitor, partial curve, poor fit]"
5,CC(=O)N1c2ccc(S(=O)(=O)NCC3CCC(C(=O)Nc4cccc(F)c4)CC3)cc2CC1C (stereo not drawn),inactive
6,O=C(CCN1CCN(C(c2ccccc2)c2ccccc2)CC1)N/N=C/c1ccc(O)cc1,"inconclusive: 3.98 µM [inhibitor, partial curve, poor fit]"
7,COC(=O)[C@]12CCCCC=C1N(CCC1=CCCCC1)C(=O)[C@H](CC(=O)N1CCCCC1)C2,"inconclusive: 11.2 µM [inhibitor, single point]"
8,COc1ccc(-c2ccc3[nH]c4c(c3c2)CCN2C[C@@H]([C@H](C)O)[C@@H](N(C)C(=O)Nc3cc(Cl)cc(Cl)c3)C[C@@H]42)cc1,"inconclusive: 7.94 µM [inhibitor, partial curve, poor fit]"
9,Cc1cccc(N(CC(=O)Nc2ccc(CC#N)cc2)S(C)(=O)=O)c1,inactive
10,CCCCOCCCNC(=O)C[C@@H]1C[C@@]2(C(=O)OC)CC(C)(C)CC=C2N(Cc2cccc3ccccc23)C1=O,"inconclusive: 10 µM [inhibitor, partial curve, poor fit]"
11,O=S1(=O)C=C(Sc2nc3cc(Cl)ccc3o2)c2ccccc21,inactive
12,O=C(Nc1ccc(Oc2ccccc2)nc1)C1CCN(Cc2cccc(F)c2)CC1,"inconclusive: 7.94 µM [inhibitor, partial curve, poor fit]"
13,CCOc1ccc(-c2n[nH]c3c2C(c2cccs2)N(c2ccc(Br)cc2)C3=O)cc1 (stereo not drawn),"inconclusive: 10 µM [inhibitor, partial curve, poor fit]"
14,CCCOC(=O)Nc1nc(-c2ccc(C)cc2)c(C)s1,"inconclusive: 12.6 µM [inhibitor, partial curve, poor fit]"
15,CCOC(=O)c1cc(-c2ccc(OC)cc2)n(CCC(=O)NC2CCC(C)CC2)c1C (stereo not drawn),"inconclusive: 11.2 µM [inhibitor, single point]"
16,CCOc1ccc(NC(=O)CSc2oc(-c3ccco3)nc2S(=O)(=O)c2ccc(Cl)cc2)cc1,inactive
17,CC(C)[C@H](NS(=O)(=O)c1ccccc1)C(=O)OCC(=O)NC(=O)c1cccn1C,inactive
18,S=C(Nc1ccc(Br)cc1Cl)NC1CCN(Cc2ccccc2)CC1,"inconclusive: 6.31 µM [inhibitor, partial curve, poor fit]"
19,COc1ccccc1OCCn1c(C)c(C=O)c2ccccc21,"inconclusive: 28.2 µM [inhibitor, partial curve, poor fit]"
20,CN(C)S(=O)(=O)Nc1ccccc1C(N)=O,"inconclusive: 28.2 µM [inhibitor, single point]"
21,N#C/C(=C(/O)c1ccc2c(c1)OCO2)c1nc2cc(C(F)(F)F)ccc2s1,"inconclusive: 11.2 µM [inhibitor, partial curve, poor fit]"
